Source: PubChem BioAssay AID485364 (National Center for Advancing Translational Sciences (NCATS), 2010)
The whole screen tested about 360,000 compounds, of which about 11,000 (3.1%) were called active. This list was built around the results that the source calls inconclusive (neither active nor inactive); the mix of calls is not that of the screen. Calls come from the whole dose curve; as a rule, active = well fitted inhibition curve with a large enough effect; inconclusive = small, poorly fitted or top-dose-only effect; inactive = no such curve, though single readings can be large or run the other way. Potencies of inconclusive entries are left out as doubtful fits.

biological target: Schistosoma mansoni thioredoxin glutathione reductase (TGR) (UniProt Q962Y6); assay: qHTS Assay for the Inhibitors of Schistosoma Mansoni Peroxiredoxins; details: purified TGR, DTNB reduction, TNB absorbance 405 nm; series mostly up to 114 µM; note: nearly all actives have a fitted effect of over 60% in size
Procedure, shortened: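 Kinetic colorimetric format: TGR-catalysed, NADPH-driven DTNB reduction monitored via TNB absorbance. Enzyme dispensed at 20 nM; compound exposure 15 min at room temperature before reaction start.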
Potency is the fitted concentration of half-maximal effect; tags give direction and shape of the fitted curve.

Row | SMILES | Potency
1 | Cn1nccc1C(=O)NC1CCCc2c1cnn2-c1ccccc1F (stereo not drawn) | inactive
2 | COc1ccc(C2=NOC(C(=O)NCc3cccs3)C2)cc1 (stereo not drawn) | inactive
3 | Cc1cc(Br)cnc1NC(=S)Nc1ccc(F)cc1F | inconclusive [inhibitor, full curve, poor fit]
4 | O=C(NCc1ccco1)Nc1cccs1 | inconclusive [inhibitor, partial curve]
5 | C=CCOc1nc2sc(C)c(C)c2c(=O)n1-c1ccccc1 | inactive
6 | S=c1nc(NCc2ccc3c(c2)OCO3)c2ccccc2[nH]1 | inconclusive [inhibitor, partial curve]
7 | O=C(NCc1ccc(Cl)cc1)C1CCC(CNS(=O)(=O)c2ccccc2)CC1 (stereo not drawn) | inconclusive [inhibitor, single point]
8 | O=C(COc1ccccc1)Nc1cccc(-c2nc3ccccc3[nH]2)c1 | inactive
9 | CCNC(=O)/C(=C/c1ccco1)NC(=O)/C=C/c1ccccc1 | active: 39.8 µM
10 | Cc1cccc(-c2nc3scc(CCNS(=O)(=O)c4ccc(F)c(C(F)(F)F)c4)n3n2)c1 | inconclusive [inhibitor, single point]
11 | Cn1cnc([N+](=O)[O-])c1Sc1ccc(C(C)(C)C)cc1 | inconclusive [inhibitor, partial curve]
12 | COc1ccc(-c2nc(CS(=O)(=O)CC(=O)NCc3ccc(F)cc3)c(C)o2)cc1 | inconclusive [inhibitor, full curve]
13 | CN(C)C=NC1=NN(c2cccc(C(F)(F)F)c2)CC1 | inconclusive [inhibitor, partial curve]
14 | COc1ccc2cc(/C=C/C(=O)c3ccco3)c(Cl)nc2c1 | active: 44.7 µM
15 | CCN(CC)CCCC(C)NC(=O)c1cccc(S(=O)(=O)N2CCc3ccccc32)c1 (stereo not drawn) | active: 15.8 µM
16 | CCOC(=O)N1CCC2(CC1)C(C#N)=C(N)Oc1c2c(C)nn1-c1cccc(Cl)c1 | active: 1.12 µM
17 | COc1cc(/C=C(\C#N)c2ccccn2)cc(OC)c1O | inconclusive [inhibitor, single point]
18 | O=C(NCc1cccs1)c1ccc(N2CCCC2=O)cc1 | inactive
19 | CCCC(=O)Nc1nc(C(=O)OCC)cs1 | inactive
20 | CC(OC(=O)CC1CCCCC1)C(=O)Nc1cccc(C#N)c1 (stereo not drawn) | inactive
21 | CC(=N\O)/C(CN(C)C)=N/O | inactive
22 | c1ccc(C[C@H]2CNCCN2CC2(c3ccccc3)CC2)cc1 | active: 44.7 µM
23 | O=[N+]([O-])c1ccc(/C=N\NS(=O)(=O)c2ccc(F)cc2)o1 | inconclusive [inhibitor, full curve, poor fit]
24 | Cc1ccc(OCCCC(=O)NC2CCCCC2)cc1 | active: 39.8 µM

Row | SMILES | Potency
25 | CC1CCc2c(c3ccccc3n2C(=O)CCl)C1 (stereo not drawn) | active: 8.91 µM
26 | O=C1N/C(=C\c2ccc(O)cc2)C(=O)c2ccccc21 | inconclusive [inhibitor, partial curve]
27 | FC(F)Oc1ccccc1NC(=S)Nc1cccc(Cl)c1Cl | inconclusive [inhibitor, partial curve]
28 | O=C(CNC(=O)c1cccc(F)c1)N/N=C/c1ccc([N+](=O)[O-])s1 | inconclusive [inhibitor, partial curve]
29 | Cc1ccnc(Nc2nc(-c3ccc(O)c(O)c3)cs2)c1 | inconclusive [inhibitor, partial curve]
30 | COc1ccc(-c2cc(C(=O)NCCc3ccc(OC)c(OC)c3)c3c(-c4ccc(F)cc4)[nH]nc3n2)cc1 | inactive
31 | C=C1CCN(Cc2ccccc2)S(=O)(=O)c2ccccc21 | inactive
32 | COc1cc(OC)c2c(-c3ccccc3)cc(=O)oc2c1C(CC(=O)N1CCOCC1)c1ccc(N(C)C)cc1 (stereo not drawn) | inconclusive [inhibitor, partial curve]
33 | COc1ccc(-c2ccc(CCC(=O)O)n2NC(=O)c2ccc(C(C)(C)C)cc2)cc1 | inconclusive [inhibitor, single point]
34 | COc1ccc(C(C)=O)cc1COC(=O)c1ccc2c(c1)OCO2 | inconclusive [inhibitor, full curve]
35 | CCN1C(=O)NC(=O)/C(=C/c2cc(C)n(-c3sc(C)c(C)c3C#N)c2C)C1=O | inconclusive [inhibitor, partial curve]
36 | COc1ccc(-c2c[n+](CC(=O)c3cccs3)c3n2CCC3)cc1 | inactive
37 | O=C(CCC(=O)c1cccs1)OCC(=O)N1CCN(C(=O)c2ccco2)CC1 | inconclusive [inhibitor, partial curve]
38 | CCc1ccccc1NC(=O)Cn1nc(N2CCN(c3ccccc3OC)CC2)ccc1=O | inactive
39 | COc1cccc(CNC(=O)C2CCCN(S(=O)(=O)c3ccc4c(c3)C(C)(C)C(=O)N4C)C2)c1 (stereo not drawn) | inactive
40 | Cc1cccc(NC(=O)N2CCC(CN3CCCCCC3)CC2)c1C | inconclusive [inhibitor, partial curve]
41 | O=C(Cc1ccc(Br)cc1)NC1CCCCC1 | inconclusive [inhibitor, full curve, poor fit]
42 | CCCCCCC(=O)OCC(=O)c1ccc2c(c1)NC(=O)CO2 | inconclusive [inhibitor, partial curve]
43 | COc1ccc(-c2onc(C)c2C)cc1S(=O)(=O)N1CCN(c2cc(C)ccc2C)CC1 | inactive
44 | CC(=O)n1cc([C@@H]2C=C(C(=O)N3CCOCC3)O[C@H](OCc3ccc(CO)cc3)C2)c2ccccc21 | inconclusive [inhibitor, partial curve]
45 | CCC1OC2(C)OC(=N)C1(C#N)C(C#N)(C#N)C2c1ccccc1 (stereo not drawn) | inconclusive [inhibitor, partial curve]
46 | COCCNCC#CCOc1ccc(OC)cc1 | inconclusive [inhibitor, full curve]
47 | Cc1ccccc1NC(=S)NC(C)C(c1ccccc1)N1CCN(C)CC1 (stereo not drawn) | inactive
48 | COC(=O)C1=C(C)N(c2ccc(OC)cc2)C(=O)/C1=C\c1cccs1 | inactive
